# Measurements reported in PubChem BioAssay AID488969 (Vanderbilt High Throughput Screening Facility, 2010).
# Over roughly 110,000 compounds, “z-score” has its median near -0.1; the highest 2% begin near 2. The list shows a part of the results.
# Target: Metabotropic glutamate receptor 8 (Rattus norvegicus) (UniProt P70579)
# Assay: mGluR8 Gi/Go-coupled signaling modulation – cell-based, rat, thallium flux, HTS, primary screen (AID 488969)
# Conditions: HEK293 rat mGluR8, GIRK (G protein-gated inwardly rectifying potassium channel) thallium flux, FluoZin2; at 10 µM; stronger effect = higher value; submaximal glutamate (EC20) added with thallium
# UniProt P70579, sequence (P70579 whole entry, looked up): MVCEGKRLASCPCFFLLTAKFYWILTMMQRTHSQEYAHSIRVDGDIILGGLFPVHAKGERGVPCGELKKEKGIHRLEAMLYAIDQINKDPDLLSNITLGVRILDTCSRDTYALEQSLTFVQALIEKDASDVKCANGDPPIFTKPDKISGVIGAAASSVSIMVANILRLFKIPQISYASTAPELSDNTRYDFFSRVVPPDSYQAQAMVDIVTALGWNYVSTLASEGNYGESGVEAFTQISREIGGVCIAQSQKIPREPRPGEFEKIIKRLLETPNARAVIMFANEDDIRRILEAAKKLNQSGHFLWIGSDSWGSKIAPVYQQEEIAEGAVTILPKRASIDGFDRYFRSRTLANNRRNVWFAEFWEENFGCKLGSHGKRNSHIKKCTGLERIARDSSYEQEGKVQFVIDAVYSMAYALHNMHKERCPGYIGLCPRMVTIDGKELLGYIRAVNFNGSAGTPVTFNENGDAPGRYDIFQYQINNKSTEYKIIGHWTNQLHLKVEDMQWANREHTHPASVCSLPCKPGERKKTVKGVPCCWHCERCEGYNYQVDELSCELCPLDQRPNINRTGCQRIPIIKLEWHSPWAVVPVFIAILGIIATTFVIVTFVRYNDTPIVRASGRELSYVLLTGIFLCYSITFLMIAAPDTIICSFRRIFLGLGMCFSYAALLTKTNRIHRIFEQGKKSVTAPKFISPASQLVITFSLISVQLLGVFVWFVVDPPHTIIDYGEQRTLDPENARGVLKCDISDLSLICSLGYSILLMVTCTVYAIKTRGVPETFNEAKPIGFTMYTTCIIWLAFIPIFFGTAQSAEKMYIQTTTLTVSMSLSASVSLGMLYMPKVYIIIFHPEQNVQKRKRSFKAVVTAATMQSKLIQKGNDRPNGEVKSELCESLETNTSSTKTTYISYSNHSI
row,Compound,z-score
1,Cc1ccc(-n2ncc3c(=O)n(-c4ccc(C)c(C)c4)c(-c4ccco4)nc32)cc1,-0.219
2,Cc1ccc(NNC(=O)C(=O)N2CCCCC2)cc1,-0.317
3,CCCCCCCCNC(=O)C(CCC(=O)OCc1ccccc1)NC(C)=O (stereo not drawn),-0.362
4,COc1ccc(C(C(=O)NC2CCCCC2)N(Cc2cccs2)C(=O)Cc2c[nH]c3ccccc23)cc1 (stereo not drawn),-0.128
5,O=C(CSc1nccc(=O)[nH]1)N1CCCc2ccccc21,-1.4
6,Cc1c(C(=O)Nc2cccc(-c3nnc4n3CCCCC4)c2)oc2ccccc12,0.703
7,CN(c1ccccc1)c1nc2ccsc2c(=O)s1,-0.971
8,CN(Cc1ccc(O)cc1)C1CCCCC1,0.708
9,S=C(c1ccc[nH]1)N1CCOCC1,0.291
10,CCCCCCC(=O)Nc1ccc(C(=O)N2CCCC2)cc1,-0.187
11,O=S(=O)(c1ccc2ccccc2c1)N(CC(O)COCc1ccco1)c1ccccc1 (stereo not drawn),-0.633
12,CCSc1nc2c(c(=O)[nH]c(=O)n2C)n1CC(O)COc1ccccc1C (stereo not drawn),-0.0318
13,COc1cc(C(=O)O)cc(OC)c1OCc1cc(C(=O)O)oc1C,0.311
14,CC(=C1C(=O)c2ccccc2C1=O)N1CCN(C/C=C/c2ccccc2)CC1,2.04
15,COc1ccc(CC(=O)Nc2cccc(-c3csc(C)n3)c2)cc1,1.88
16,Cc1cc(C(=O)CN2C(=O)NC(C)(c3cccc(Br)c3)C2=O)c(C)n1Cc1ccco1 (stereo not drawn),0.276
17,CN=C1SC(CC(=O)Nc2cccc(C(F)(F)F)c2)C(=O)N1C (stereo not drawn),0.056
18,Cc1cc(-c2n[nH]c(=S)n2/N=C/C(Br)=C/c2ccccc2)n[nH]1,-0.283
19,CCOC(=O)CNC(=O)c1cc(C)oc1C,0.701
20,Fc1ccc(Cn2c(SCc3ccc(F)c(C(F)(F)F)c3)nnc2C(F)(F)F)cc1,-0.265
21,Cn1cccc1-c1nc2ccc(NC(=O)c3ccccc3)cc2[nH]1,-0.561
22,CCOC(=O)C(NC(=O)Nc1ccc(F)cc1F)(Oc1ccccc1)C(F)(F)F (stereo not drawn),-2.64

row,Compound,z-score
1,CC(=O)c1c(C(C)=O)c(C)n(-c2nc(-c3ccc(C)c(C)c3)c(C)s2)c1C,-0.531
2,Cc1cc(Cl)c(S(=O)(=O)NCc2ccncc2)cc1OCC(N)=O,0.0102
3,COCCCNC(=S)NNC(=S)Nc1ccc(F)cc1F,0.0456
4,Cc1nn(-c2ccccc2)c2c1C(c1c(C)[nH]c(C#N)c1C)C(C#N)=C(N)O2 (stereo not drawn),-0.228
5,O=C(Nc1nncs1)c1ccc(S(=O)(=O)c2ccccc2)cc1,-0.535
6,COc1cc2cc(CN(Cc3nnnn3Cc3ccco3)C3CCCCC3)c(=O)[nH]c2cc1OC,-2.72
7,CCc1ccccc1N(CC)C(=O)c1cn(C)c(=O)c2cc(OC)c(OC)cc12,-0.534
8,O=C(c1ccco1)N1CCN(C(=O)N2CCOCC2)CC1,0.0701
9,O=C1c2ccccc2C(=O)C12OC2c1ccc(Cl)cc1Cl (stereo not drawn),-2.03
10,Cc1ccc(/C=C/c2ccc(=O)n(Cc3ccccc3Cl)n2)cc1,-0.116
11,Cc1nc(C)c(C(=O)N(c2ccc(C)c(C)c2)C(C(=O)NCc2ccco2)c2ccccc2)s1 (stereo not drawn),-1.4
12,COc1ccc(C(=O)c2cn[nH]c2-c2cc(Cl)ccc2O)cc1,-0.207
13,COc1cccc(C(=O)COC(=O)c2ccc(NC(=O)c3ccccc3)cc2)c1,-0.304
14,COc1ccc(-c2c(C)n([O-])c(C)c(C)[n+]2=O)cc1OC,-0.261
15,CSc1nccc(-c2cc(Cl)sc2Cl)n1,-0.127
16,COC(=O)CSc1n[nH]c(-c2cccnc2)n1,2.21
17,CCOC(=O)c1ccc(NC(=O)c2cccc(S(=O)(=O)N3c4ccccc4CC3C)c2)s1 (stereo not drawn),0.51
18,COC(=O)Cc1c(C)c2ccc(OCC(=O)N3CCOCC3)cc2oc1=O,-0.0395
19,Cc1cc2ncn(CCOc3ccccc3)c2cc1C,-1.43
20,O=c1[nH]c(=S)[nH]nc1Cc1ccccc1,0.282
21,Cc1cc(C)nc(N2CCCC(C(=O)Nc3cc(F)ccc3C)C2)n1 (stereo not drawn),-0.253
22,Oc1ccc(-c2nc3ccccn3c2NCc2ccco2)cc1,-0.884

row,Compound,z-score
1,CCOc1nc(NC(=O)NC(=O)c2ccccc2)nc(-c2ccccc2)n1,-0.276
2,COc1ccc(C(=O)Cn2c(=O)c(CCC(=O)O)nn3c4ccccc4nc23)cc1OC,0.0747
3,CC1CCCCN1C(=O)CSc1nnc(CSc2ncccn2)n1C (stereo not drawn),0.773
4,CCn1c(=O)n(CC(=O)Nc2cc(OC)c(OC)c(OC)c2)c(=O)c2ccccc21,-0.173
5,O=C(NCc1ccco1)c1cc2nc(-c3ccc4c(c3)OCO4)cc(C(F)(F)F)n2n1,-0.645
6,COc1ccc(-c2nc3ccccc3c(=O)n2NC(=S)N(C)C)cc1,-0.0299
7,COc1ccc(-n2c(SCC(N)=O)nc3nc4c(cc3c2=O)COC(C)(C)C4)cc1,0.00439
8,O=C1CCCC(=O)C1=C1SCCCS1,-0.18
9,O=C(CNS(=O)(=O)c1ccc(Br)s1)NCC1COc2ccccc2O1 (stereo not drawn),0.0278
10,C=CCNc1nc(Nc2ccc(OC)cc2OC)nc(OCC)n1,-0.877
11,Cc1ccccc1C(=O)Nc1nc2n(n1)C(c1ccccc1)CC(=O)N2 (stereo not drawn),-0.38
12,COc1ccc(NC(=O)/C=C/c2cccc(F)c2)cn1,-0.529
13,O=c1c2cnn(-c3ccccc3)c2nc(-c2cccs2)n1-c1ccc(Br)cc1,-0.945
14,Cc1ccc(-c2nc3ccccc3s2)cc1NC(=S)NC(=O)c1cccc2ccccc12,0.183
15,O=C(Cn1nnc(-c2ccc(CN3CCOCC3)cc2)n1)N1CCCc2ccccc21,1.82
16,COc1cc(NC(=O)CSc2nnc(-c3ccncc3)n2C2CCCCC2)ccc1NC(=O)c1ccco1,-0.847
17,Cc1nnc(SCC(=O)N2CCc3ccccc3C2)s1,0.0143
18,Cc1ccc(O)c(C(=O)c2cnn(-c3ccccc3)c2)c1,-0.29
19,O=C(Nc1ccn(Cc2ccccc2F)n1)c1ccc(COc2ccc(Cl)cc2Cl)o1,-0.281
20,CCCCCC(=O)Nc1cc2[nH]c(=O)cc(COC)c2cc1C,-0.00991
21,CC(C)C(=O)N(c1ccc2oc(=O)sc2c1)S(=O)(=O)c1cccs1,-0.944
22,O=C(NC1CCCc2ccccc21)C1CCN(S(=O)(=O)c2cnc[nH]2)CC1 (stereo not drawn),-0.509

row,Compound,z-score
1,O=[N+]([O-])c1cccc(NC(=S)NCCc2ccccc2)c1,1.98
2,O=C(c1ccc(C(=O)N2CCOCC2)nc1)N1CCOCC1,-0.037
3,CC(C)Nc1cc(C(F)(F)F)nc(-c2ccccn2)n1,0.00249
4,CC1(C)NC(=O)N(CC(O)COc2cc3ccccc3cc2C(=O)N2CCCCC2)C1=O (stereo not drawn),-0.708
5,CCOC(=O)Nc1ccc(S(=O)(=O)N(C)C(C)C)cc1,-0.113
6,CCNc1nc(NC(C)C)nc(OCC)n1,-0.186
7,COCCN(C(=O)Cn1nnc2ccccc21)C(C(=O)NC1CCCC1)c1cccc(OC)c1OC (stereo not drawn),0.143
8,O=C(NCCc1csc(-c2ccccc2)n1)c1ccc(Br)o1,-0.551
9,Clc1ccccc1-c1nn2c(-c3ccncc3)nnc2s1,-0.211
10,CCOc1cc(C(=O)Nc2cc(C)ccc2C)ccc1OCC(=O)N1CCCCC1,0.207
11,Cc1ccc(C(=O)N/C(=C\c2ccco2)C(=O)NCCCn2ccnc2)cc1,-0.09
12,CCOC(=O)c1ccc(NC(=O)CCn2nnc3ccccc32)cc1,0.109
13,Cc1cc(N2CCCCC2)nc2ccc(NC(=O)c3ccc(Br)o3)cc12,-1.58
14,COc1ccc(NC(=S)NCCc2c[nH]c3ccccc23)cc1,-0.346
15,CCOc1cccc(-c2cc(C(=O)N/N=C/c3ccc(OC)c(CN4CCOCC4)c3)c3ccccc3n2)c1,-0.136
16,COc1ccc(/C=C/C(=O)Nc2cc(C(F)(F)F)ccc2Cl)cc1OC,-0.241
17,C=CCn1c(CSc2nc3ccccc3s2)nnc1SCC(=O)NCc1ccccc1,-0.287
18,Cc1ccc(S(=O)(=O)N2CCN(CC(=O)N/N=C/c3ccc(Br)s3)CC2)cc1,-0.366
19,O=C(c1n[nH]c(=O)c2ccccc12)N1CCN(C2c3ccccc3-c3ccccc32)CC1,-0.135
20,CCCCOC(=O)Nc1ccc(N(C)C)cc1,-0.00985
21,Cc1ccc2nc(/C(C#N)=C\c3ccc(Oc4ccc([N+](=O)[O-])cn4)cc3)[nH]c2c1,-0.462
22,CCOc1ccc(/C(=N\O)C(C)NO)cc1 (stereo not drawn),-0.811

row,Compound,z-score
1,Cc1[nH]c(C(=O)N/N=C/c2ccc(C(=O)O)cc2)c(C)c1C(=O)N/N=C/c1ccc(C(=O)O)cc1,-0.0407
2,COC(=O)c1ccc(CSc2nnc(NCc3ccccc3)s2)o1,-1.04
3,CN(c1ccccc1)c1nc(N2CCCC2)nc(-n2ccnc2)n1,-0.407
4,Cc1ccccc1/C(N)=N/OC(=O)/C=C/c1ccccc1,1.6
5,O=C(NC(=S)Nc1cc(-c2nc3ccccc3[nH]2)ccc1Cl)c1ccc2c(c1)OCO2,-0.223
6,FC(F)Sc1ccc(NC(=S)NC2CCC(NC(=S)Nc3ccc(SC(F)F)cc3)CC2)cc1 (stereo not drawn),-0.2
7,CC(C)C(=O)Nc1ccc2c(c1)C(=O)N(CCC(=O)O)C2=O,0.16
8,COc1ccccc1CN=Cc1[nH]c2ccc(Br)c(Cl)c2c1O,-0.742
9,COc1ccc(C(CC(=O)Nc2ccccc2OC)n2cccc2)cc1 (stereo not drawn),-0.113
10,Cn1nc(-c2ccc(N3CCOCC3)c(NS(=O)(=O)c3ccccc3)c2)c2ccccc2c1=O,-0.135
11,Cc1ccc(NC(=O)C2CCCN2C(=O)NC2CCCCC2)c(C)c1 (stereo not drawn),0.897
12,CCOP(=O)(O)c1ccccc1OCCCCCOc1ccccc1P(=O)(O)OCC,-0.285
13,O=C(NC12CC3CC(CC(C3)C1)C2)N1CCN(C(=O)C2CCCO2)CC1 (stereo not drawn),0.11
14,Cc1ccccc1NC(=S)/C(=C(\[O-])c1ccc(C)c([N+](=O)[O-])c1)[n+]1ccccc1,0.013
15,O=C(CSc1nnc(-c2ccncc2)n1-c1ccc(Cl)cc1)NCc1cccs1,-0.067
16,CCSc1nnc(NC(=O)c2csc(C)c2)s1,-0.162
17,COc1ccc(OC)c(NC(=O)C(Sc2ccccc2)c2ccccc2)c1 (stereo not drawn),0.629
18,CC(NC(=O)c1cccc(N2CCCC2=O)c1)c1ccc2c(c1)OCCO2 (stereo not drawn),-0.699
19,COc1ccc(OCC(O)CN2CCN(Cc3ccc4c(c3)OCO4)CC2)cc1 (stereo not drawn),-0.0487
20,Cc1oc2nc(SCC(=O)NCCCO)nc(N)c2c1C,-0.517
